Among all 270,000 compounds or so, about 5,800 (2.1%) were called active. Inconclusive means that the source gave no clear call. Such entries were picked first, then a sample of the others. The call rests on the fitted dose curve; in most records, active means well fitted inhibition curve with a large enough effect; inconclusive means small, poorly fitted or top-dose-only effect; inactive means flat fitted curve, though single readings scatter. Potencies of inconclusive entries are doubtful fits and often do not repeat.
Each compound was assayed against Microtubule-associated protein tau (Homo sapiens) (UniProt P10636) (assay: qHTS for Inhibitors of Tau Fibril Formation, Thioflavin T Binding). Details: recombinant tau K18 P301L (four-repeat tau fragment), heparin-induced fibrillization, ThT fluorescence; series mostly up to 57.4 µM; activity, negative = inhibition: at the top concentration.
Chain of UniProt P10636 (P10636 whole entry, looked up, the tested form may be a part): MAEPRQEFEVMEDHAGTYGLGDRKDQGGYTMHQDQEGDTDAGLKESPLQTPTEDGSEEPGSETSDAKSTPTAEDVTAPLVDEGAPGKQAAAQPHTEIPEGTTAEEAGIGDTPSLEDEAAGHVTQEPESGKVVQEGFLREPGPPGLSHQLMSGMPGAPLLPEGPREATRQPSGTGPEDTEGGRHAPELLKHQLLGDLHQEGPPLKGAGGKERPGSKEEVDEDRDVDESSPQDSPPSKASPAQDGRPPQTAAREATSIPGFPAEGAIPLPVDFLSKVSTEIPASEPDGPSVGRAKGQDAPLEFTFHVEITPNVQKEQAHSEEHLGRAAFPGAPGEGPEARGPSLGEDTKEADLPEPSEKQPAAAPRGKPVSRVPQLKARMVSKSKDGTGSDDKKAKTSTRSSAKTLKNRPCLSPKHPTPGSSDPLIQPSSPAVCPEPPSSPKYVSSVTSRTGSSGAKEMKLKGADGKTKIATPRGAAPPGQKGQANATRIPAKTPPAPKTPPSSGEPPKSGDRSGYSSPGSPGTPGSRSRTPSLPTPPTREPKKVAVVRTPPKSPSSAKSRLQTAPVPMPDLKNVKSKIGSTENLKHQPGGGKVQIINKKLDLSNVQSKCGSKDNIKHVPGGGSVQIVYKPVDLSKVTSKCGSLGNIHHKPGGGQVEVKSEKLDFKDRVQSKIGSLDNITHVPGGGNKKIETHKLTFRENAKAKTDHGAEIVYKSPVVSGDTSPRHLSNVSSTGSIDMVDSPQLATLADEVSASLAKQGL
Procedure, shortened: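 Aggregation was driven by heparin (20 uM final) acting on recombinant tau […] bearing P301L in 100 mM sodium acetate pH 7; fibrils were detected with Thioflavin T.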
Further: nearly all actives have a fitted effect of over 55% in size.
On the % scale 0 is the no-effect control and ±100 the full control effect; potency means the concentration at half of the fitted maximal effect; tags describe the fitted curve by direction and shape.

Structure (SMILES)	Potency	activity, negative = inhibition
COCCCN1C(=O)/C(=C/c2ccc(CNS(=O)(=O)c3ccccc3)o2)C(C(=O)OC)=C1C	active: 14.1 µM	–
CN(C)Cc1ccccc1-c1cncnc1NCc1cccnc1	–	inactive: -10.3%
CCc1nnc(NS(=O)(=O)c2ccc(N/C=C\C(=O)c3cccc(OC)c3)cc2)s1	inconclusive: 17.8 µM [inhibitor, partial curve]	–
O=C(CCN1C(=O)C2C3C=CC(C3)C2C1=O)NCCc1ccccc1 (stereo unspecified)	–	inactive: -3.95%
Cn1cnnc1SCC(=O)Nc1sc2c(c1C#N)CCCCC2	–	inactive: -11.3%
Cc1c(Cl)cccc1NC(=O)COCc1cc(-c2ccc3c(c2)OCO3)on1	inconclusive: 1.41 µM [inhibitor, full curve, poor fit]	–
Cc1nc2c(-c3ccccc3)c(C)nn2c(C)c1CCC(=O)N1CCN(c2ccc(F)cc2)CC1	inconclusive: 39.8 µM [inhibitor, single point]	–
COc1cccc(CNC(=O)CCc2c(C)nc3c(c(C)nn3-c3ccc(C)c(C)c3)c2C)c1	–	inactive: 3.63%
Cc1cccc(C(=O)Nc2cccc(Br)c2)c1[N+](=O)[O-]	inconclusive: 44.7 µM [inhibitor, single point]	–
NC(=O)c1sc2nc3c(c(-c4ccco4)c2c1N)CCCC3	inconclusive: 12.6 µM [inhibitor, single point]	–
O=C(Nc1ccc(OCc2ccccc2)cc1)c1ccccc1	–	inactive: -2.7%
CCOC(=O)c1c(NC(=S)Nc2ccc(OCC)cc2)sc2c1CCN(C)C2	inconclusive: 15.8 µM [inhibitor, partial curve, poor fit]	–
CC1(C)CC(=O)C(C=NCCN2CCN(C3CC(=O)N(c4cccc(Br)c4)C3=O)CC2)=C(O)C1 (stereo unspecified)	–	inactive: -4.46%
CCOC(=O)c1cc(-c2ccc(N)cc2)sc1N	inconclusive: 15.8 µM [inhibitor, partial curve]	–
CCN(CC)c1ccc(NC(=O)CCS(=O)(=O)c2cc3c(cc2Cl)NC(=O)CO3)c(C)c1	–	inactive: 9.85%
Cc1ccc2nc(N3CCN(c4cccc(C(F)(F)F)c4)CC3)c3nnnn3c2c1	–	inactive: -16%
O=[N+]([O-])c1ccccc1NCc1c(O)ccc2ccccc12	inconclusive: 5.01 µM [inhibitor, partial curve]	–
COc1ccc(OC)c(C2Nc3nc4ccccc4n3C(C)=C2C(=O)Nc2ccc(C)cc2C)c1 (stereo unspecified)	inconclusive: 35.5 µM [inhibitor, partial curve, poor fit]	–
CCSc1nc2ccccc2n1C(=O)/C=C/c1ccc(OC)c(OC)c1	active: 7.94 µM	–
COC(=O)c1cn(CCOc2ccccc2OC)c2ccccc12	inconclusive: 35.5 µM [inhibitor, partial curve]	–
CCN1CCN(C(=S)NC(=O)/C=C/c2cccs2)CC1	–	inactive: 2.41%
Cc1cccc(NC(=O)c2ccc3snnc3c2)c1	inconclusive: 28.2 µM [inhibitor, single point]	–
CCN1CCOC(=O)C1CC(=O)Nc1cc(C)ccc1OC (stereo unspecified)	inconclusive: 2.82 µM [inhibitor, full curve]	–

Structure (SMILES)	Potency	activity, negative = inhibition
Cc1ccc2nc(-c3ccc(Cl)c(NC(=O)COc4cccc(C)c4C)c3)oc2c1	–	inactive: -1.49%
O=C(CCCCn1c(=O)c2ccccc2n(Cc2ccccc2Cl)c1=O)NCCc1ccccc1	–	inactive: -1.9%
Cc1csc2nc(COC(=O)c3cccc(NC(=O)COc4ccc(Cl)cc4)c3)cc(=O)n12	inconclusive: 0.562 µM [inhibitor, full curve]	–
O=C(N/N=C/c1ccc([N+](=O)[O-])cc1)c1cccc2cc[nH]c12	inconclusive: 1.78 µM [inhibitor, full curve]	–
Cc1ccn2c(=O)cc(COc3ccc(NC(=O)COc4ccc(Cl)cc4)cc3)nc2c1	inconclusive: 3.98 µM [inhibitor, full curve]	–
CCN(CC)c1nc(-c2cccc(OC)c2O)nc2ccccc12	inconclusive: 11.2 µM [inhibitor, partial curve]	–
CC1=C(C)CS(=O)N(c2ccc(S(N)(=O)=O)cc2)C1 (stereo unspecified)	inconclusive: 2.82 µM [inhibitor, partial curve]	–
O=C(NC12CC3CC(CC(C3)C1)C2)c1ccc(N2CCNCC2)c([N+](=O)[O-])c1	inconclusive: 44.7 µM [inhibitor, single point]	–
CC1CN(c2ncc(/C=N/NC(=O)c3ccccc3O)s2)CC(C)O1 (stereo unspecified)	inconclusive: 39.8 µM [inhibitor, partial curve]	–
O=C(NCc1ccco1)c1cc2sccc2n1Cc1ccc(F)cc1	inconclusive: 25.1 µM [inhibitor, single point]	–
Nc1cc2nc3ccccc3oc-2cc1=O	active: 7.08 µM	–
COc1ccc(C(=O)Nc2nnc(-c3ccco3)s2)cc1	–	inactive: -11.9%
CCOc1ccc2c(c1)c(N=NC(=N)N)c(O)n2C	inconclusive: 20 µM [inhibitor, partial curve]	–
COc1ccc(N(C(=O)c2ccc(OC)c(OC)c2)S(=O)(=O)c2ccc(Cl)cc2)cc1	inconclusive: 10 µM [inhibitor, partial curve]	–
C/C(=N\Nc1nc(N)cc(Cl)n1)c1ccc(Cl)c(Cl)c1	inconclusive: 7.94 µM [inhibitor, full curve]	–
CCc1ccc2ncc3c(-c4ccccc4)nn(-c4ccccc4)c3c2c1	inconclusive: 12.6 µM [inhibitor, partial curve]	–
Cc1ccc(-c2nc(CSc3nc4ccccc4c(=O)n3C)cs2)cc1	inconclusive: 2.82 µM [inhibitor, partial curve]	–
CCc1ccc(NCc2cc3cc4c(cc3n(CC(=O)Nc3cccc(OC)c3)c2=O)OCO4)cc1	–	inactive: 1.79%
CCCCC(NC(=O)c1ccccc1)C(=O)OCC(=O)N1c2ccccc2Sc2ccccc21 (stereo unspecified)	–	inactive: 8.79%
O=[N+]([O-])c1cccc(N/N=C/c2cccc3ccccc23)c1	inconclusive: 5.01 µM [inhibitor, partial curve]	–
N#C/C(=N\Nc1ccccc1F)c1nc(-c2ccccc2)cs1	inconclusive: 12.6 µM [inhibitor, partial curve, poor fit]	–
CNCCCOc1cccc(OC(C)C)c1	–	inactive: -13.8%
COc1ccc(CCNC(=O)c2nnn(-c3ccc4c(c3)OCCO4)c2N)cc1OC	inconclusive: 15.8 µM [inhibitor, partial curve]	–

— PubChem BioAssay AID1460 (National Center for Advancing Translational Sciences (NCATS), 2008)
